Source: article PMC4081560 (PLoS ONE, 2014)
Where two headings read alike, the source gives them in different places.

Assays:
[1] = system: K/09 virus (A/Korea/01/2009); test: microbe, parasite or virus in culture; conditions: Influenza A virus, MDCK
[2] = molecular target: T1, K/09 virus (A/Korea/01/2009) neuraminidase (NA) (Influenza A virus, UniProt C5MQP8); test: biochemical
[3] = molecular target: T1, K/09 virus (A/Korea/01/2009) neuraminidase (NA)

Structure (SMILES): NC(=O)c1nc(F)cnc1O [Favipiravir, 6-fluoro-3-hydroxy-2-pyrazinecarboxamide]
- EC50 [1]: 8390 nM

Structure (SMILES): CCC(CC)O[C@@H]1C=C(C(=O)O)C[C@H](N)[C@H]1NC(C)=O [Oseltamivir carboxylate]
- IC50 [2]: 5.07 nM

Structure (SMILES): CCC(CC)[C@H](NC(C)=O)[C@@H]1[C@H](O)[C@@H](C(=O)O)C[C@H]1N=C(N)N [Peramivir]
- IC50 [3]: 1.38 nM
